From PubChem BioAssay AID1963576 (National Center for Advancing Translational Sciences (NCATS), 2024)
Out of some 46,000 compounds screened, about 60 (0.1%) were called active. Not shown: some 3% with an inconclusive outcome. Calls follow the shape of the dose curve; as a rule, active = well fitted inhibition curve with a large enough effect; inconclusive = small, poorly fitted or top-dose-only effect; inactive = no such curve, though single readings can be large or run the other way. Some of the results follow.

assay: Primary qHTS assay for Inhibitors of ovarian cancer metastasis using an organotypic tumor microenvironment (TME) model.; also: nearly all actives have a fitted effect of over 65% in size;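 as to activity change, negative = inhibition: plate controls were DMSO wells for no effect and tomatine positive control wells for full effect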; conditions: SKOV3ip1-GFP adhesion/invasion on 3D omental model, fluorescence; series mostly up to 45.8 µM; activity change, negative = inhibition: at the top concentration
Method in brief: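 Primary human omental fibroblast/mesothelial 3D culture pre-formed 48 h. SKOV3ip1-GFP cells added with compounds (0.36-46 umol/L), incubated 2 h RT/16 h 37 C, fixed; GFP cells quantified at 488/509 nm.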

Activity change, negative = inhibition, inactive:
COc1cccc(OCc2nc3ccccc3n2C)c1 -5.03%
Cc1ccc(C)c(Cn2c(C(C)NC(=O)c3ccccc3)nc3ccccc32)c1 (stereo not given) -22.6%
Cc1nc2ccc(S(=O)(=O)N(CC(=O)Nc3cccc(C)c3C)Cc3ccccc3)cc2s1 2.75%
O=C(Cn1c(=O)oc2cc(S(=O)(=O)N3CCCC3)ccc21)Nc1ccc(OC(F)(F)F)cc1 -21.7%
Cc1ccc(NC(=O)C2CCC(CNS(=O)(=O)c3cccc4nsnc34)CC2)c(C)c1 (stereo not given) 0.659%
COc1ccc(-c2nc3sc(CCNC(=O)C(=O)Nc4ccc(C)cc4C)c(C)n3n2)cc1 -3.29%
COc1ccc(Cn2c(CCC(=O)Nc3cccc(Cl)c3)nc3cccnc32)cc1 -5.86%
COc1ccc(-c2ccc(NS(=O)(=O)c3ccccc3Cl)cc2)nn1 9.92%
CCOc1cccc2cc(-c3nc(-c4ccc(Cl)cc4)c(C)s3)c(=O)oc12 -2.61%
CCc1ccc(-c2cn3c(n2)sc2cc(C(=O)NCCCc4ccccc4)ccc23)cc1 -6.54%
CCOc1ccc(C(c2c(C)[nH]n(-c3ccccc3)c2=O)c2c(C)[nH]n(-c3ccccc3)c2=O)cc1OC -28.9%
Cc1cccc(C(=O)NCC(=O)OCc2cc(=O)n3nc(C)sc3n2)c1 9.14%
CC(Oc1ccccc1)C(=O)Nc1ccc(C(=O)OCc2cc(=O)n3ccsc3n2)cc1 (stereo not given) 6.26%
N#Cc1nc(/C=C/c2ccc(F)cc2)oc1N1CCCCC1 23%
CCOc1ccccc1NC(=O)CN1Cc2ccccc2C1=O -5.44%
COC(=O)[C@H](c1ccccc1Cl)N1CCc2sccc2C1 1.14%
CC(C)(C)COc1ccc(-n2cc(C(=O)O)cn2)cc1C#N 10.8%
Cc1ccc(Cn2cc3c(n2)-c2c(oc(C(=O)Nc4ccc(F)cc4F)c2C)CC3)cc1 4%
Cc1nc(SCC(=O)Nc2ccc(Cl)cc2C(F)(F)F)[nH]c(=O)c1Cc1ccccc1 -26.9%
COc1ccc(CNC(=O)c2ccc3c(Cl)c4c(nc3c2)CCCC4)c(OC)c1 1.54%
Cc1cc(-c2ccccc2)nc2cc(C(=O)Nc3cc(C(F)(F)F)ccc3Cl)nn12 13%
Cc1cccc(Nc2cc(C)nc3nc(Cc4ccc(Cl)cc4)nn23)c1 -1.64%
O=C(Nc1cc(-c2nc3cc(Cl)ccc3o2)ccc1Cl)c1cc2ccccc2o1 -7.42%
CN(Cc1ccccc1)S(=O)(=O)c1ccc(F)c(C(=O)Nc2cc(Cl)cc(Cl)c2)c1 -5.88%
CC(=O)c1cccc(NC(=O)c2ccc3c(c2)c(C)c(C)n3Cc2ccc(Cl)cc2)c1 -8.7%
COc1cc(OC)c(NC(=O)CSCc2nc(-c3ccc(OC)c(OC)c3)no2)cc1Cl 5.76%
Cc1ccc(C)c(N2CCN(S(=O)(=O)c3ccc4c(c3)n(C)c(=O)c(=O)n4C)CC2)c1 -0.907%
O=C(NCc1ccccc1)c1ccc(Cn2c(=O)c3cccn3c3cccnc32)cc1 2.72%
COc1ccc(OC)c(NC(=O)c2cnc(N3CCCC3)nc2C)c1 8.72%
Cc1ccc(C2C=C(c3ccc(F)cc3)Nc3nc(CCCO)nn32)cc1 (stereo not given) 16.4%
NC(=O)N1CCC(CC(=O)N2CCC([C@H]3c4ncc(Br)cc4CCc4cc(Cl)cc(Br)c43)CC2)CC1 15.6%
CCOc1ccc(C(=O)c2cn(Cc3ccccc3)c3c(F)cc(F)cc3c2=O)cc1 -25.6%
CCCCc1ccc(NS(=O)(=O)c2ccc(N3CCCCS3(=O)=O)cc2)cc1 9.96%
Cc1c(C(=O)Nc2ccc(F)c(F)c2)oc2ccc(S(=O)(=O)N3CCC4(CC3)OCCO4)cc12 12.4%
COc1ccccc1CNC(=O)CN(c1ccc(C)cc1)S(=O)(=O)c1c(C)noc1C 35.7%
Cc1nn(-c2ccc(F)cc2)c(-n2cccc2)c1C(=O)N1CCN(c2ccccc2F)CC1 -14.7%
O=C1NC(O)CCN1[C@@H]1O[C@H](CO)[C@H](O)[C@H]1O (stereo not given in full) -15.1%
O=C(CN1C(=O)CCc2cc(S(=O)(=O)N3CCOCC3)ccc21)NCc1ccccc1Cl 63.9%
COc1ccc(Cn2c(=O)c3oc4ccccc4c3n(Cc3cccc(F)c3)c2=O)cc1 -3.41%
Cc1ccc(OCC(=O)Nc2ccc3nc(SCC(N)=O)sc3c2)cc1 -2.98%
CCOC(=O)C1CCCN(S(=O)(=O)c2cc3c(cc2C)NC(=O)CO3)C1 (stereo not given) 10.3%
O=C(NCc1cccc(F)c1)c1ccc2nc(N3CCCCC3)sc2c1 6.57%
CC1=C(C(=O)Nc2cc(Cl)ccc2C)C(c2ccco2)n2ncnc2N1 (stereo not given) 33.8%
O=C(CSc1nc2c([nH]c3ccccc32)c(=O)n1-c1ccc(F)cc1)NCc1ccco1 -5.85%
COC(=O)c1c(C)oc2ccc(N(C(=O)Oc3ccccc3)S(=O)(=O)c3ccc(C(C)(C)C)cc3)cc12 -14.5%
Cc1c(C)n(C)c2ccc(C(=O)NCCc3ccc(Cl)cc3)cc12 -0.271%
Cc1ccc(CSc2ncc(Cl)c(C(=O)Oc3ccc(F)cc3)n2)cc1 17.2%
COc1cccc(CNC(=O)CSC2=Nc3ccccc3C3=NC(C)C(=O)N23)c1OC (stereo not given) -16.3%
CCOC(=O)COc1ccc(CC)cc1C(=O)c1ccn2nc(-c3ccc(Cl)cc3)cc2n1 -7.5%
Cc1ccc(-n2nc3ccc(NC(=O)Cc4ccc(Cl)cc4)cc3n2)cc1 2.09%
COC(=O)c1sc2cccc(F)c2c1S(=O)(=O)NCc1ccc(Cl)cc1 -7.89%
CCOC(=O)c1c(NC(=O)C(C)Sc2cn(CCNC(=O)c3ccccc3OC)c3ccccc23)sc2c1CCC2 (stereo not given) 60.2%
Cc1ccc(C)c(S(=O)(=O)NCCc2csc(-c3ccc(Cl)cc3)n2)c1 -9.55%
Cc1sc2c(c1C)c(=O)n(CCc1ccccc1)c(=O)n2Cc1ccc(F)cc1 -0.319%
O=S(=O)(NCCS(=O)(=O)N1CCN(c2ccccc2)CC1)c1ccc(Cl)cc1 0.153%
O=C(CCC(=O)c1ccccc1)Nc1ccc(F)c(Cl)c1 13.5%
COc1ccc(CCN2CC(C(=O)NCCc3ccccc3)CC2=O)cc1OC (stereo not given) 6.23%
O=C(c1cnc(N2CCCCC2)c2ccccc12)N1CCN(c2ccc(Cl)cc2)CC1 -6.92%
COc1ccc(C(=O)Nc2ccccc2-c2nc(-c3ccc(OC)cc3)no2)cc1 -6.53%
CC(=O)c1ccc(N2CCN(C(=O)c3cc4ccc5cccnc5c4[nH]3)CC2)cc1 6.16%
O=C(Nc1ccc(Cl)cc1)c1cc2nc(-c3ccc4c(c3)OCO4)cc(C(F)(F)F)n2n1 9.68%
CCn1c(=O)n(-c2cccc(Cl)c2)c(=O)c2sc3ccccc3c21 -4%
CCc1nn(CC(=O)N2CCN(c3ccc(Cl)cc3)CC2)c(=O)c2cc3occc3n12 -27.9%
CCCC(=O)C1=C(c2cccc(OC)c2)N(C(=O)CCC)n2c(C)nnc2S1 -27.8%
Cc1cc(C)c2sc(N(Cc3cccnc3)C(=O)CCOc3ccccc3)nc2c1 2.72%
CCOC(=O)c1ccc2c(c1)[C@@H]1C=CC[C@@H]1[C@H](c1cccc(OC)c1OC)N2 -20.6%
CSc1ccc(CNC(=O)CN2C(=O)C3CCCCN3c3ccc(C(=O)N4CCCC4)cc32)cc1 (stereo not given) -3.79%
Cn1ccc2c(OCC(=O)Nc3ccc([N+](=O)[O-])cc3)cccc2c1=O -0.976%
O=C(Nc1cc(C(F)(F)F)cc(C(F)(F)F)c1)c1cc(Cl)ccc1O -13.2%
CCc1ccc(NC(=O)C2CCN(S(=O)(=O)c3c(C)noc3/C=C/c3ccco3)CC2)cc1 0.143%
FC(F)(F)c1ccc(-c2noc(-c3ccccc3Br)n2)cc1 13%
COC(=O)c1cc2sc(C)cc2n1CC(=O)Nc1cccc(SC)c1 2.58%
COc1ccc(NC(=O)c2cc(S(=O)(=O)NCCC3=CCCCC3)ccc2F)cc1 3.72%

outcome, inactive:
O=C(CCn1cnc2onc(-c3ccc(F)cc3)c2c1=O)N1CCN(c2ccccc2)CC1
Cc1nc(N2CCOCC2)c2c(C(=O)N3CCN(c4ccc(Cl)cc4)CC3)c(C)oc2n1
COc1ccc(-c2nsc(NC(=O)c3cccc(OC)c3)n2)cc1
COC(=O)c1ccc(CN(Cc2ccc(OC)c(OC)c2)S(=O)(=O)c2ccc(F)c(C(=O)Nc3cc(C)ccc3C)c2)cc1
CCc1nn2c(=O)cc(COC(=O)c3cccs3)nc2s1
CCOC(=O)c1ccc(NC(=O)Cn2cc(S(=O)(=O)Cc3ccccc3F)c3ccccc32)cc1
CCn1cc(C(=O)NCCCOC(C)C)c(=O)c2cc(S(=O)(=O)N(C)C3CCCCC3)ccc21
CCOC(=O)c1c(-c2ccccc2)csc1NC(=O)c1cc(-c2cccc(Cl)c2)on1
CC(=O)Nc1ccc(NS(=O)(=O)c2ccc(Cl)s2)cc1
O=C(Nc1c(-c2ccc(F)cc2)nc2ccccn12)c1cccc(F)c1
CCSc1ncc(Cl)c(C(=O)N(Cc2ccccc2)Cc2ccco2)n1
CCCOc1ccc(NC(=O)CC2C(=O)N(c3ccc(C)cc3)C(=O)N2C2CCCC2)cc1 (stereo not given)
CCSc1nnc2c(n1)OC(c1sccc1C)N(C(C)=O)c1ccccc1-2 (stereo not given)
Cc1ccc(NC(=O)C2CCCN(S(=O)(=O)c3c(C)n[nH]c3C)C2)cc1Cl (stereo not given)
O=C(NCCc1ccc(Cl)cc1)c1ccc2c(c1)N(Cc1c(F)cccc1Cl)C(=O)CS2
CCOc1ccc(NC(=O)Cn2c(=O)n(CCCC(=O)NCc3ccc4c(c3)OCO4)c(=O)c3ccccc32)cc1
COc1ccc(-c2noc(N3CCN(c4ccc(C)cc4)C(C)C3)n2)cc1OC (stereo not given)
COc1ccccc1CNC(=O)c1cnc2c(-c3ccccc3)c(C)nn2c1C
O=C(c1ccc2c(c1)N(Cc1ccc(F)cc1)C(=O)c1ccccc1S2(=O)=O)N1CCN(c2ccccn2)CC1
Fc1ccc(-c2cc(C(F)(F)F)nc(NCc3ccccc3)n2)cc1
Cc1cccc(NC(=O)C2CCCN(S(=O)(=O)c3ccc4c(c3)oc(=O)n4C)C2)c1 (stereo not given)
COc1ccc(OC)c(/C=C(\C#N)c2nc3ccccc3c(=O)[nH]2)c1
